Consider nine compounds from patent publication US10111437B2, “Substituted guanidines as fungicides” (Nippon Soda Co., Ltd., priority 2015, dated 2018).

Each structure is given as a SMILES string.

The experiment deals with wheat powdery mildew fungus (Blumeria graminis f. sp. tritici). Put plainly: Wheat powdery mildew control test (foliar spray on wheat seedlings). The settings on record: in Triticum aestivum, 168 h, read-out: control value.
On to `N=C(NCCCOc1ccc(C(=N)N)cc1)NCCCOc1ccc(C(=N)N)cc1` [compound 42, 4-[3-[[N-[3-(4-carbamimidoylphenoxy)propyl]carbamimidoyl]amino]propoxy]benzamidine], for which the pest or weed control at 125 ppm is no less than 75%.

Consider `N=C(N)NCCCCCCCNC(=N)NCCCCOc1ccc(C2=NCCCN2)cc1` [compound 202], for which the pest or weed control at 125 ppm is no less than 75%.

Turning to `N=C(NCCCCOc1ccc(C(=N)N)cc1)NCCCCOc1ccc(C(=N)N)cn1` [compound 194], the pest or weed control at 125 ppm was no less than 75%.

As to `N=C(N)NCCCCCCCCn1ccn(CCCCOc2ccc(C(=N)N)cc2)c1=N` [compound 216], the pest or weed control at 125 ppm was no less than 75%.

With `N=C(N)NCCCCCCCNC(=N)NCCOCc1ccc(C2=NCCCN2)cc1` [compound 238], the pest or weed control at 125 ppm is no less than 75%.

For the compound `N=C(N)c1ccc(OCCCCn2ccn(CCCOc3ccc(C(=N)N)cc3)c2=N)cc1` [compound 40, 4-[4-[3-[3-(4-carbamimidoylphenoxy)propyl]-2-imino-imidazol-1-yl]butoxy]benzamidine], the pest or weed control at 125 ppm was no less than 75%.

On to `N=C(N)NCCCCCNC(=N)NCCCOc1ccc(C(=N)N)cc1` [compound 132], for which the pest or weed control at 125 ppm is no less than 75%.

As for `N=C(NCCCOc1ccc(C(=N)N)cn1)NCCCOc1ccc(C(=N)N)cn1` [compound 17, 6,6′-((((iminomethylene)bis(azanediyl))bis (propane-3,1-diyl))bis(oxy))dinicotinimidamide], the pest or weed control at 125 ppm is no less than 75%.

For the compound `N=C(N)NCCCCCCCNC(=N)NCCC=Cc1ccc(C(=N)N)cc1` [compound 163], the pest or weed control at 125 ppm is no less than 75%.
